# Data taken from PubChem BioAssay AID1625 (Sanford-Burnham Center for Chemical Genomics, 2009).
# The other results are listed elsewhere or left out. These are further read-outs of the screen, such as a control signal, another cell line or another target. No call is given for them. Compounds called inactive in the main read-out are mostly missing here.
# Test: up-regulation of insulin promoter-GFP reporter – imaging, high-content screening, mouse beta cells (AID 1625);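 further: total cells summed across four imaged fields per well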
# Conditions: MIN6 insulin promoter-GFP reporter, measured here: cytotoxicity, nuclei count, at 5 µM
row,Structure (SMILES),cell count
1,COc1cc2c(cc1NC(=O)CN1CCN(S(=O)(=O)c3ccccc3F)CC1)oc1ccccc12,758 cells
2,CCC(C)(C)c1ccc(OCCCC[n+]2cccc(C)c2C)c(C(C)(C)CC)c1,284 cells
3,COC(=O)c1cc(CSc2nnc(-c3ccccc3)c(-c3ccccc3)n2)oc1C,435 cells
4,CN(Cc1ccccc1)C1=CC(=[N+]2CCCC2)CC(C)(C)C1,235 cells
5,Cc1nc2ccccc2c2c1CC(C(C)(Cl)Br)O2 (stereo not given),442 cells
6,Cn1c(=O)oc2cc(S(=O)(=O)N3CCCC(C(=O)NCc4ccc5c(c4)OCO5)C3)ccc21 (stereo not given),141 cells
7,CCS(=O)(=O)c1ccc(N=Nc2ccc(O)c3ncccc23)c(OC)c1,344 cells
8,Cc1ccccc1NC1=C/C(=N\S(=O)(=O)c2cccs2)c2ccccc2C1=O,403 cells
9,CCCN(CCC)C(=O)CSc1nc2n[nH]c(C)c2c(=N)n1-c1ccc(OC)cc1,435 cells
10,COc1ccccc1NC(=O)COC(=O)C1CC2C=CC1C2 (stereo not given),1140 cells
11,CCCCN1/C(=C/c2ccc3ccccc3[n+]2CC)Sc2ccccc21,460 cells
12,Cc1ccc2c(c1)c1c3n2CCCNC3CCC1 (stereo not given),393 cells
13,Cc1cc(N2CCCC2)ccc1/C=C1/C(=O)N(C)C(=S)N1C,1350 cells
14,CC1C/C(=C/c2ccncc2)C(=O)/C(=C/c2ccncc2)C1 (stereo not given),422 cells
15,Cn1c(-c2ccc(F)cc2)cnc1SCC(=O)N1CCCc2ccccc21,252 cells
16,Nc1c(Cl)ncnc1N/N=C/c1ccc2ccccc2n1,229 cells
17,CCOC(=O)c1sc2cc([N+](=O)[O-])cc(SCC(C)C)c2c1N,947 cells
18,COC(=O)c1c(C)oc2ccc(N(C(=O)c3ccncc3)S(=O)(=O)c3ccc(C)cc3)cc12,401 cells
19,Cc1cccc2sc(NC(=O)C3CCCN(S(=O)(=O)c4cccc5nonc45)C3)nc12 (stereo not given),1350 cells
20,CC(=O)C1=NN(c2ccccc2)C(c2cccs2)N1c1ccc(N(C)C)cc1 (stereo not given),203 cells
21,CCCCN1C(=O)/C(=C/C=C2/CC(C)(C)CN2C)SC1=S,1160 cells
22,O=C(/C=C/c1cn(CC(O)CN2CCCCC2)c2ccccc12)c1cccs1 (stereo not given),1060 cells
23,O=C(Nc1nccs1)C1(c2ccc(Cl)cc2)CC1,296 cells
24,CC(C)(C)C(=O)/C(=C/c1cccc([N+](=O)[O-])c1)n1cncn1,221 cells
25,N#CCc1nc(CSc2nc3ccccc3s2)cs1,1160 cells
26,COc1cccc(/C=N/Nc2ncc(C(F)(F)F)cc2Cl)c1O,222 cells
27,COc1ccc(CCNc2ncnc3c2oc2ccccc23)cc1OC,156 cells
28,CC[n+]1c(/C=C/N(C)c2ccccc2)oc2ccc(Cl)cc21,405 cells
29,CCCC(=O)c1c(C)c2ccccc2n1C,1450 cells
30,COc1ccccc1-[n+]1c(C)cc(/C=C2\Sc3ccccc3N2C)cc1C,372 cells
